# In the supplement of paper PMC10126150:
# Values marked as one replicate rest on one cluster of the flow cell; about a third of the high ones do not repeat.
# Test system: ATP
# Assay: switch fluorescence ratio, 500 uM ATP over buffer (Cy3 cluster intensity, sum of 5 cycles each) (fold (ratio)); higher = stronger signal-on switching upon ATP binding; sequences stand for … in TCGTCGGCAGCGTCAGATGTGTATAAGAGACAGTTTTTTTTTTTTTTTTTTTTTTTTT…TC
# Details: aptamer strand: ATP DNA aptamer (quencher-CACCTGGGGGAGTATTGCGGAGGAAGG + anchor), 100 nM annealed; ATP concentration: 500 uM; one replicate
# Procedure, shortened: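 Clusters carrying Cy3-labelled switching strands on a modified Illumina MiSeq flow-cell were annealed to 100 nM quencher-labelled ATP aptamer and imaged in selection buffer. They were imaged again after 15 min with 500 uM ATP at 22 °C, over five buffer/ATP cycles with NaOH stripping and re-annealing in between. For each cluster, the fluorescence ratio is the summed Cy3 intensity of the target cycles divided by that of the buffer cycles, averaged per switch-domain sequence. Clusters outside 100-1000 RFU were left out.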
# 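Also: ATP exposure 15 min at 22 °C before imaging.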
row,Sequence,switch fluorescence ratio
1,TGCTCCAATA,1.74
2,AGGACCGACT,1.05
3,ACACAAGGGA,1.02
4,GCACTGCTGT,1
5,GATGAGCACT,1.05
6,GACGGTAGGT,1.07
7,TTGTGGTTAA,1.02
8,TGGCACCGTT,0.956
9,AGTATACAGG,0.938
10,GATTAAAGAG,1.03
11,AAACTCGGTG,1.01
12,TTTCACGATG,1
13,TGCAGAGAAG,0.98
14,TCTGGTAGAA,1
15,CGTAAGATCC,1.08
16,TACGTCTGTT,1.02
17,GCGACCGACG,2.25
18,CGACGTTGCC,1.22
19,GCACTTACTG,1.22
20,AAAGATACGG,1.14
21,TCGAATCATT,1.01
22,CGGGTTTA,0.985
23,AGTAGTCTGC,1.04
24,AATAGACTAG,0.992
25,GGTCGATGAA,0.977
26,TGGCTTGGGC,0.952

row,Sequence,switch fluorescence ratio
1,TTGTGAGTCG,0.99
2,GAGTTGGAGG,0.971
3,CAATTGGAA,0.982
4,TTTTCGGCCG,1.02
5,GCTACCAGTT,1.08
6,TGGAGCGGCG,1.02
7,TGGAAGATTA,0.99
8,TGGCGCATAT,1.39
9,TTGGTAGGCG,0.974
10,TACACCTATC,1.05
11,CGGTTTCTCA,0.992
12,GTTGAGGATC,1.04
13,GGAGTCCACC,0.975
14,AATGCTGTTA,1
15,CTAATGTATT,0.973
16,TGACACCTGT,1.02
17,AAAATCGACT,1.01
18,TTTCTCGC,1.47
19,GACATTCGCG,1.02
20,TGCTGTGATA,0.988
21,CAAAAAGTCT,1.18
22,CGCATGTTAT,1.13
23,TCATATCTGT,0.969
24,TACTGTGGCT,1.07
25,TTGCCGACTT,0.998
26,TTGTCCTTGG,1.04

row,Sequence,switch fluorescence ratio
1,ATCTCATCTG,0.997
2,TGTTCGGCAC,1.03
3,AAGTGCTAA,0.979
4,ACTGAAGCAC,1.69
5,AATTCTCCAC,1.09
6,CTAAGAGCG,0.986
7,TGAGGCCGGA,0.962
8,TTTGAGCGGA,0.973
9,GAATGGAACC,1.08
10,TACAGTAGGC,0.997
11,TTCAGTGCAC,0.979
12,CTCCTCGAGT,1.02
13,GGCGGTCGC,1.01
14,ATCATTATTT,1.02
15,AAAGACCTTG,1.01
16,GGTTTGTT,1.01
17,CTAGTATTTC,0.947
18,TTCGCCTCGA,1.02
19,ACTTTTGGGA,0.968
20,TCTTATCTA,0.985
21,TTCTGTATGA,0.974
22,TTGAGACTAA,1.01
23,TTCCCCGGAC,0.965
24,CCTCGGTCCT,1.3
25,TCAAAATAGG,1
26,ACTAGTGATA,1.03

row,Sequence,switch fluorescence ratio
1,ACAGGTCGAC,1.06
2,TTAAACTATG,1.07
3,AAGGGAGC,1.01
4,GTAATTCGGA,1.03
5,TGAATGACTA,0.977
6,TCTCTTGGGG,0.942
7,TCAAATATAT,1.29
8,GGATGAATGC,0.956
9,AACGCTTTGG,1.35
10,TATCGGTCT,0.987
11,ACGTGTAGCC,0.966
12,TGGTGGTAGC,1.03
13,AACCTTCTAT,1.39
14,TCGTGAGAGT,1.04
15,AAGCTACGGG,1.05
16,GAAGATGATA,0.978
17,ACAAGCGGGG,0.956
18,TCTGATGAGT,0.99
19,CAGAATACTC,2.14
20,GGGGAACAGC,0.975
21,ATTGTATCAC,0.983
22,CCCGGGGCGT,1.06
23,GAGTTCGAGT,1.06
24,GAGCTAACA,0.996
25,TGCAGCGGGA,1.04
26,ACTAAGATCA,1.03

row,Sequence,switch fluorescence ratio
1,CTTATCGTAT,0.952
2,AGAAGAATGT,0.955
3,TTTTCTACCT,1.14
4,GGATATTGGT,1.03
5,ATTATATCG,1
6,CATCTCGCTC,2.24
7,TATTACGGTC,1.04
8,ATGTACCAGG,1.41
9,AGTTGCTCAT,0.999
10,ATAGCGGTGC,1.18
11,CGTTGGTAGC,0.955
12,GGGAACTTAG,1.02
13,GCGCTTGCCG,1.03
14,GAATTGAATA,1.04
15,AAGGCCTAGG,0.966
16,TTGGACTGCG,0.902
17,CCAGAGGTG,1.82
18,GGGGGCTTC,1.01
19,ATTTGGCTAC,1.08
20,TCAGGTTATT,0.995
21,ACCCAAGGGG,1.24
22,TTAGGGGATA,1.04
23,CGGGGTAGGA,0.965
24,GCGGACGCGC,1.01
25,AGACGTAGCG,0.953
26,ATCAGGGGCC,1.01

row,Sequence,switch fluorescence ratio
1,AATGTTAAAA,1.04
2,CGAATAGCGC,0.98
3,ATTCTATAAG,0.958
4,TTTATTTCGA,0.984
5,CGTTGAGTTC,1.01
6,ATTAGATGCC,0.994
7,CTAATCCTGT,1.03
8,AAAGGGGAAG,1.03
9,GATGATAGAT,0.961
10,TGAAGGACGA,0.969
11,TTTAGTTCA,0.998
12,GAGGTAATAT,1.52
13,AAGGTTCACA,0.995
14,AAAGTTGCTG,0.972
15,GGTGTGTAAC,1.06
16,TCTTGATGTC,0.848
17,TAGCGTAGCC,0.961
18,CCACTAGGAT,1.02
19,AGAGACGCGG,1
20,TCAAGGGGCG,1.03
21,TACGATGTCC,1.02
22,GGAGAGTTTT,0.964
23,CGGCATGTAA,1.03
24,GCTTCTGT,0.976
25,AAAGGCTTCA,1.19
26,AATAGTGTAC,1.11

row,Sequence,switch fluorescence ratio
1,CGGGACAAGA,0.978
2,CAGTGCACGT,1.02
3,TCTCATGCAA,1.34
4,TTGCCCTAAG,0.982
5,ATAAGGACG,1.01
6,GGCTTTCGAT,0.955
7,ACGGGCGTTC,0.993
8,GGCCTAGAAC,0.992
9,ACGTTACAGC,1.48
10,AGCGGACCCC,1.1
11,TTCATTGTTC,0.964
12,TATGCGCAAG,1.04
13,TGACTTAAGG,1.02
14,GATGTACGGA,1.06
15,AGATAAGGAA,0.991
16,CGCCCGAAGC,2.57
17,AGGGGAACAG,0.969
18,TAGCTTGGG,1.01
19,TTTAATGGGC,0.929
20,TCTTGGGTCG,0.984
21,CACAAACCTT,2.22
22,TCGTAGAAGT,1.01
23,TAAATATCTG,1.01
24,GAACCTCTGC,1.44
25,ACCGCATAAA,1.39
26,GTCGTTAACT,1.03

row,Sequence,switch fluorescence ratio
1,GCCGAGGAAA,1.05
2,GGCGGAGGTT,0.964
3,CTGTTCCCCA,1.01
4,GGTAGTTTCG,0.999
5,ACAAGTGTAT,1.02
6,CAATTAGCGG,1
7,GTGTGCGAAG,0.995
8,AACAATTGCT,0.964
9,AGGCGTTGTC,1
10,TTTACCCCAC,1.39
11,CGGGTACCTG,1.01
12,CGTCTTCACA,0.983
13,GGCCGCGTTT,1
14,TTCGCATTGT,0.996
15,GTCGTTGTGG,0.994
16,TTTGGTTCA,0.989
17,AATCCGAATG,1.07
18,GAACCAAAAT,1.06
19,AACTATACTA,1.14
